Assay results published in patent US9457043B2, “Combination therapy using c-Met inhibitor and c-Myc inhibitor” (Samsung Electronics Co., Ltd., priority 2013, dated 2016).

Assays:
Details in all cases: rank among the four antibodies huAbF46-H4-A1, -A2, -A3, -A5
c-Met [1] = biological target: T1, c-Met (Homo sapiens, UniProt P08581); assay: Affinity for c-Met of affinity-matured antibodies; type: binding
Akt phosphorylation = Akt phosphorylation by anti-c-Met antibodies
c-Met [2] = biological target: T1, c-Met; assay: c-Met degradation degree by anti-c-Met antibodies

T1 sequence (P08581 25-1390): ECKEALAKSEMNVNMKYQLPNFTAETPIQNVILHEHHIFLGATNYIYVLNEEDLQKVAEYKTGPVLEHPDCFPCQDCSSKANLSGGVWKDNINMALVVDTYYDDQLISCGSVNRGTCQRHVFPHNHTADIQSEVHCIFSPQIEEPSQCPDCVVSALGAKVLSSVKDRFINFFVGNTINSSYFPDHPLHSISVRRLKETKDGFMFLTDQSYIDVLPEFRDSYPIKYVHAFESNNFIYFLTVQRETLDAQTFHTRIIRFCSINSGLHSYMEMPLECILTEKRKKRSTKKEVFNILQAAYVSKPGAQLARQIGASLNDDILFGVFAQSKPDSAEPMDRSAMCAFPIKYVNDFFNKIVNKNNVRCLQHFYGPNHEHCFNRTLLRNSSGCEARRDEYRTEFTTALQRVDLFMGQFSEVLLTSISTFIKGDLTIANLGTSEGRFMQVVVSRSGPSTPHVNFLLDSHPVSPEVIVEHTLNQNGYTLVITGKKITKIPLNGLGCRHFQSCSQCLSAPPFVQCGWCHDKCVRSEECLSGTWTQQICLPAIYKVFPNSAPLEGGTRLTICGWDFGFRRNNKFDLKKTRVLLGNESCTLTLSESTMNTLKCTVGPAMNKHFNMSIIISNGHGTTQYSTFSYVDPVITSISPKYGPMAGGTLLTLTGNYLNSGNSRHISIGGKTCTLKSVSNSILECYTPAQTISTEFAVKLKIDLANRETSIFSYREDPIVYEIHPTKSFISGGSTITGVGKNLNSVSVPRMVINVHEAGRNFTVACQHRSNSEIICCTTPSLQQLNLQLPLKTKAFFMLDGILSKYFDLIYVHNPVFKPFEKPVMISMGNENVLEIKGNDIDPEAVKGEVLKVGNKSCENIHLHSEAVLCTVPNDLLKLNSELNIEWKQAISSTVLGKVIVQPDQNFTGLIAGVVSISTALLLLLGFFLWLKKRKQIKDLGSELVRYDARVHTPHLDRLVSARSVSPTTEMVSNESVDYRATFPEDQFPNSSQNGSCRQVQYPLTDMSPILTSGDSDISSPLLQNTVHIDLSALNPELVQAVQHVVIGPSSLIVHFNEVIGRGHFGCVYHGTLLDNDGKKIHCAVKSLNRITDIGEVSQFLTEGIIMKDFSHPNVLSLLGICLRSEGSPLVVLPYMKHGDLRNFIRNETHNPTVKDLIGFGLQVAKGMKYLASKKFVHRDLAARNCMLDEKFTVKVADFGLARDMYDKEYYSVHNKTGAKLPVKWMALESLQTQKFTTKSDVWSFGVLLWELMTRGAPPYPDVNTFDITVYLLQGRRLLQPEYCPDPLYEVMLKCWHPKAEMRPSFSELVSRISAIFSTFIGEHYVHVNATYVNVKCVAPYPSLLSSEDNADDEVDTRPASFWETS

B1: huAbF46-H4-A1: affinity-matured humanized anti-c-Met antibody of L3-1 origin (CDR-L3 SEQ ID NO: 13), U6-HC7 hinge (antibody)
heavy: EVQLVESGGGLVQPGGSLRLSCAASGFTFTDYYMSWVRQAPGKGLEWLGFIRNKANGYTTEYSASVKGRFTISRDNSKNTLYLQMNSLRAEDTAVYYCARDNWFAYWGQGTLVTVSSASTKGPSVFPLAPSSKSTSGGTAALGCLVKDYFPEPVTVSWNSGALTSGVHTFPAVLQSSGLYSLSSVVTVPSSSLGTQTYICNVNHKPSNTKVDKKVEPKSCDCH[human IgG1 Fc cut from this listing]
light: DIQMTQSPSSLSASVGDRVTITCKSSQSLLASGNQNNYLAWHQQKPGKAPKMLIIWASTRVSGVPSRFSGSGSGTDFTLTISSLQPEDFATYYCQQSYSRPYTFGQGTKVEIKRTVAAPSVFIFPPSDEQLKSGTASVVCLLNNFYPREAKVQWKVDNALQSGNSQESVTEQDSKDSTYSLSSTLTLSKADYEKHKVYACEVTHQGLSSPVTKSFNRGEC
In the case of B1, the “affinity for c-Met” value (c-Met [1]) is reported as “highest”, the Akt phosphorylation (Akt phosphorylation) is reported as “lowest” and the c-Met degradation degree (c-Met [2]) is reported as “lowest”.
